The record followed here is article PMC4336329 (PLoS ONE, 2015).

The whole screen tested about 310,000 compounds, of which about 2,200 (0.71%) showed an effect of 50% or more. The effect is printed as a negative number. The list shows a part of the results.

This test deals with human ether-à-go-go-related gene (hERG) potassium channel (human, UniProt Q12809). Put plainly: primary screen, population patch clamp on CHO cells stably expressing hERG.
Chain of human ether-à-go-go-related gene (hERG) potassium channel (Q12809 whole entry, looked up): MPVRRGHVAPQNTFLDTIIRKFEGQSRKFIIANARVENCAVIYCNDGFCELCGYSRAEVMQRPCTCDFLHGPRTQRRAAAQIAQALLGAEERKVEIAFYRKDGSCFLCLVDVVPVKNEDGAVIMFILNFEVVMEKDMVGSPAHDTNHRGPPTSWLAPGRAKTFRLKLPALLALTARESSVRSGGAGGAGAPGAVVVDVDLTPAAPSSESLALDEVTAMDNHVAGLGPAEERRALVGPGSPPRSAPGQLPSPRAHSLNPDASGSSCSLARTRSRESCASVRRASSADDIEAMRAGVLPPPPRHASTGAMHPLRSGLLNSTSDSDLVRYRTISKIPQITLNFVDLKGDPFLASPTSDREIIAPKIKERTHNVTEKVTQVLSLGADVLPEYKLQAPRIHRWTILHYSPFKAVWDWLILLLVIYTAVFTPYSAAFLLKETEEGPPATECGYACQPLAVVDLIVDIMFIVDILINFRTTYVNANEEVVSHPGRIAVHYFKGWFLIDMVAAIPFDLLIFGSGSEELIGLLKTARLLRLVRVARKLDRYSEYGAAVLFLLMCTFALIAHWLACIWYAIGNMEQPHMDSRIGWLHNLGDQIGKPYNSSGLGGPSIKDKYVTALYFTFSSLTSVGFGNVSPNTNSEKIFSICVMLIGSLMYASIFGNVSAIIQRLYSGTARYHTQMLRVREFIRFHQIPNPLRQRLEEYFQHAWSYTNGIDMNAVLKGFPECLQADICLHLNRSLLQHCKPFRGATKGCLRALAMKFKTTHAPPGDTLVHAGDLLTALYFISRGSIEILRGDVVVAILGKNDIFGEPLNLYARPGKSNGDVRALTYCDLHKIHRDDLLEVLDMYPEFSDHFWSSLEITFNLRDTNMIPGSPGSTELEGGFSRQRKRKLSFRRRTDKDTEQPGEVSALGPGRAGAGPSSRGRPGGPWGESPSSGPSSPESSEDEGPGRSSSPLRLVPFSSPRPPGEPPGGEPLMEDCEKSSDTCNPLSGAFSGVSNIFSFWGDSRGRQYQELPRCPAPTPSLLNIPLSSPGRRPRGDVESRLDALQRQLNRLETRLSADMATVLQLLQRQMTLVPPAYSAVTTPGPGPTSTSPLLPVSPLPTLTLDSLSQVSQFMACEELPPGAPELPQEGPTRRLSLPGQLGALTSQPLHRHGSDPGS
With `O=C(N/N=C/c1ccccn1)c1ccc(Cl)cc1`, the “hERG current change (%, negative = inhibition) at 1uM” value is on record as 11.4%. On to `CCCOc1ccc(-c2nnn(CC(=O)Nc3cccc(C(=O)OC)c3)n2)cc1`, for which the “hERG current change (%, negative = inhibition) at 1uM” value is given as -0.984%. For the compound `CC(=O)Nc1cccc(NC(=O)Nc2cccc(Cl)c2C)c1`, the “hERG current change (%, negative = inhibition) at 1uM” value was 17.5%. As for `COc1cc(OC)c2c(-c3ccccc3)cc(=O)oc2c1C(CC(=O)N1CCOCC1)c1ccc(N(C)C)cc1` (stereo not shown), the figure is 10.7%; as for `CC(=O)N(CN1C(=O)c2ccccc2C1=O)c1ccccc1`, 10.1%. As for `COc1ccc(-n2nnnc2SCC(=O)N2CCCC2)cc1OC`, the figure is 12.3%; as for `Cc1nnc2ccc(N3CCCCC3)nn12`, 11%. As for `O=C(O)c1ccccc1C(=O)NCC(O)COc1ccc(Cl)cc1` (stereo not shown), the “hERG current change (%, negative = inhibition) at 1uM” value is 12.4%. As to `Cc1nc2sccn2c(=O)c1CCN1CCC(=C(c2ccc(F)cc2)c2ccc(F)cc2)CC1`, the “hERG current change (%, negative = inhibition) at 1uM” value is on record as -65%. As for `Cc1ccc2nc(-c3sc4nc(C)ccc4c3N)[nH]c2c1`, the figure is 16.2%. `COc1ccc2c(c1)c(CCNNC(=O)C(C)(C)C)c(C)n2C(=O)c1ccc(Cl)cc1`: the “hERG current change (%, negative = inhibition) at 1uM” value came out at 4.7%. With `CCC(=O)N/N=C(\C)CC(=O)Nc1ccc(Cl)cc1`, the “hERG current change (%, negative = inhibition) at 1uM” value worked out at 8.49%. As for `CC(=O)c1cccc(NC(=O)C2CCCCC2)c1`, the figure is 10.2%; as for `Cc1noc(/C=C/c2ccco2)c1S(=O)(=O)N1CCC(C(=O)NC(C)c2ccccc2)CC1` (stereo not shown), 13.9%; as for `CCc1cc2c(=O)c(-c3ccc4c(c3)OCCO4)coc2cc1OS(C)(=O)=O`, 14.3%.

Regarding `O=C(Cn1c(=O)oc2ccccc21)Nc1nc(-c2ccccc2)cs1`, the “hERG current change (%, negative = inhibition) at 1uM” value was found to be 13.1%. In the case of `CC(C)C(=O)NCc1cc(-c2ccccc2)no1`, the “hERG current change (%, negative = inhibition) at 1uM” value came out at 12.8%. As for `CN(C)CCCNCCCNC(=O)c1ccccn1`, the figure is -3.37%.

Take `CCC(=O)Nc1ccc2c(c1)nc1n2CCSC1`: the “hERG current change (%, negative = inhibition) at 1uM” value is recorded as 9.43%. For `C/C(=N\NC(=O)C1CC1)c1ccc(N2CCOCC2)cc1`, the “hERG current change (%, negative = inhibition) at 1uM” value is reported as 8.17%.

For the compound `Cc1ccc(Cn2ccc(NC(=O)c3c(-c4ccccc4Cl)noc3C)n2)cc1`, the “hERG current change (%, negative = inhibition) at 1uM” value came to 3.45%.

Turning to `CCOc1ccc(C(=O)NCCCN(CC)CC)cc1`, the “hERG current change (%, negative = inhibition) at 1uM” value was -18.8%.

For `COc1ccc(NC(=O)c2cccc(S(=O)(=O)NCc3ccccc3)c2)cc1S(N)(=O)=O`, the “hERG current change (%, negative = inhibition) at 1uM” value was -1.47%. For `COc1ccc(-c2nnnn2C)cc1S(=O)(=O)Nc1ccc(C)cc1C`, the “hERG current change (%, negative = inhibition) at 1uM” value stood at 6.72%. As for `CC1(C(=O)NC2CCCCCCC2)CCC(=O)N1Cc1cccs1` (stereo not shown), the figure is -8.46%; as for `C=CCOc1ccc(C2c3c(oc4ccccc4c3=O)C(=O)N2CCCN2CCOCC2)cc1` (stereo not shown), -6.32%; as for `CCOP(=O)(OCC)C(NC(=O)C(C)C)C(Cl)(Cl)Cl` (stereo not shown), 4.89%.

Take `COc1ccc(CNC(=O)COC(=O)c2ccc(Br)o2)cc1`: the “hERG current change (%, negative = inhibition) at 1uM” value is listed as 12.6%. Take `COc1ccc(S(=O)(=O)Nc2ccccc2-c2nc3ccccc3[nH]c2=O)cc1`: the “hERG current change (%, negative = inhibition) at 1uM” value was 7.5%.

Consider `COc1ccc(CNC(=O)CCn2c(=O)c3cccn3c3ccc(F)cc32)cc1`, for which the “hERG current change (%, negative = inhibition) at 1uM” value worked out at 0.0738%.

For the compound `Oc1ccc(NC(=S)Nc2ccccc2)cc1`, the “hERG current change (%, negative = inhibition) at 1uM” value worked out at 14.5%.

Regarding `CCOc1ncccc1C(=O)OCC(=O)N1c2ccccc2CC1C` (stereo not shown), the “hERG current change (%, negative = inhibition) at 1uM” value is -4.59%. As for `COc1ccc(C(=O)NC(Nc2ccc(C)cc2)C(Cl)(Cl)Cl)cc1` (stereo not shown), the figure is 8.56%; as for `O=C(CN1CCN(Cc2ccccc2)CC1)Nc1ccc(Br)cc1`, -48.3%.

Turning to `COC(=O)Cc1csc(/N=C/c2c(O)n(-c3cccc(C(F)(F)F)c3)c(=O)c3ccccc23)n1`, the “hERG current change (%, negative = inhibition) at 1uM” value was found to be 14.8%.

In the case of `Cc1cccc(C)c1NC(=O)C1(NC(=O)Cn2cccc([N+](=O)[O-])c2=O)CCCCC1`, the “hERG current change (%, negative = inhibition) at 1uM” value came to 13.5%. For `CCOc1ccccc1OCCC(=O)NNC(=O)Cn1nc(C)cc1C`, the “hERG current change (%, negative = inhibition) at 1uM” value was 1.53%. As for `Cc1ccnc(N2CCC(C(=O)Nc3cccc(C(F)(F)F)c3)CC2)n1`, the figure is 5.54%; as for `Cl.O=S(=O)(CCc1ccncc1)c1ccc(Cl)cc1`, 6.95%. As for `COc1ccc(C)cc1NC(=O)CO/N=C(\N)CC(=O)NC1CCCCC1`, the figure is 3.39%; as for `CSCCC(NC(=O)c1ccc(Cl)cc1Cl)C(=O)NCc1ccccn1` (stereo not shown), 5.25%.

As for `CCNC(=O)/C=C/c1ccccc1[N+](=O)[O-]`, the “hERG current change (%, negative = inhibition) at 1uM” value stood at 11.2%. As for `c1cncc(-c2noc(C34CC5CC(CC(C5)C3)C4)n2)c1`, the figure is 13.4%; as for `COC(=O)c1cccc(S(=O)(=O)N2CCC(NC(=O)NC34CC5CC(CC(C5)C3)C4)CC2)c1`, 12.6%; as for `CCN(CC)c1ccc(C(=O)NNC(=O)CNC(=O)c2cccs2)cc1`, 4.97%. `O=C(COc1ccc(Br)cc1)NCC1COc2ccccc2O1` (stereo not shown): the “hERG current change (%, negative = inhibition) at 1uM” value was found to be 8.57%.

For the compound `CCOCCCNC(=O)C1c2cc(OC)c(OC)cc2C(=O)N2CCCCC12` (stereo not shown), the “hERG current change (%, negative = inhibition) at 1uM” value worked out at 4.39%. As for `COC(=O)c1sccc1NC(=O)c1cnc2cc(C)nn2c1C`, the figure is 3.08%. On to `Cc1ccc(NC(=O)CN2CCc3cc4c(cc3C2)OCCCO4)cc1`, for which the “hERG current change (%, negative = inhibition) at 1uM” value came to 10.2%. As for `CCc1nnc(NC(=O)C2=CCN(S(=O)(=O)c3ccc(F)cc3)CC2)s1`, the figure is 9.88%; as for `O=c1[nH]c(/C(Cl)=C/c2cccc(C(F)(F)F)c2)nc2cc(Cl)ccc12`, -8.69%; as for `Nc1nc(-c2ccc3c(c2)CCCC3)c(CC(=O)O)s1`, 15.3%.

As for `COc1cc(OC)cc(C(=O)Nc2cccc(-c3ccc(N4CCOCC4)nn3)c2)c1`, the “hERG current change (%, negative = inhibition) at 1uM” value was 15.8%. As for `COc1ccc(NC(=S)N2CCC(c3nc4ccccc4o3)CC2)c(OC)c1`, the figure is -0.976%; as for `CC1(C)Cc2c(cnn2-c2ccccc2)C(=O)/C1=N\NC(=O)c1ccncc1`, 6.95%. In the case of `COc1cccc(N2C(=O)CC(NNC(=O)c3cccs3)C2=O)c1` (stereo not shown), the “hERG current change (%, negative = inhibition) at 1uM” value is reported as -4.51%. As for `CCCc1nnc(NC(=O)c2c(O)c3c([nH]c2=O)CCCC3)s1`, the figure is 10.2%; as for `CCCCOC1CC(c2ccc(OCc3ccc(OC)cc3)c(OC)c2)N(C)O1` (stereo not shown), 13%. On to `CN(C)c1ccc(/C=C2\C(=O)NC(=O)N(Cc3ccc(F)cc3)C2=O)cc1`, for which the “hERG current change (%, negative = inhibition) at 1uM” value is recorded as -1.18%. For the compound `CCOC(=O)N1CCC(NC(=O)c2ccc3c(c2)N=C(CC)c2ccccc2S3)CC1`, the “hERG current change (%, negative = inhibition) at 1uM” value is recorded as 6.6%.

On to `O=C(NCC1CCCO1)c1cccc(NS(=O)(=O)c2ccccc2)c1` (stereo not shown), for which the “hERG current change (%, negative = inhibition) at 1uM” value was determined as 14.9%. As for `COc1ccc(N2CCN(C(=O)CCc3ccccc3)CC2)cc1`, the figure is 10.3%; as for `Cc1ccc(C)c(N2CCN(C(=O)CCC(=O)Nc3nnc(CC(C)C)s3)CC2)c1`, 9.27%. For the compound `Cc1ccc(-n2ncc3c2CC(C)(C)CC3NC(=O)Cc2c(C)noc2C)cc1` (stereo not shown), the “hERG current change (%, negative = inhibition) at 1uM” value was -6.36%.

Take `CC(=O)Nc1ccc(OC(=O)COc2ccc(Br)cc2)cc1`: the “hERG current change (%, negative = inhibition) at 1uM” value amounted to 10.9%. As for `O=[N+]([O-])c1cc(Cl)ccc1N1CCOCC1`, the figure is 32.8%; as for `O=C(Nc1ccc(F)cc1)c1ccc(S(=O)(=O)N2CCCC2)cc1`, 12.5%. As for `O=C(NNC(=O)c1ccc([N+](=O)[O-])cc1Cl)c1ccncc1`, the figure is -5.45%; as for `O=C(CSCc1c(Cl)cccc1Cl)Nc1ccccc1-c1ccccc1`, 11.4%; as for `O=C(NCc1nc2ccccc2[nH]1)C1CCCCC1`, 9.83%. As for `COc1ccc([N+](=O)[O-])cc1C(=O)NC1CCN(Cc2ccccc2)CC1.Cl.O`, the figure is -19.6%; as for `CCOC(=O)NC(=O)c1cn(-c2ccc(OC)cc2)c(=O)[nH]c1=O`, 10.7%. On to `NC(=O)CCN(C(=O)c1cccc(S(=O)(=O)N2CCc3ccccc32)c1)c1ccccc1`, for which the “hERG current change (%, negative = inhibition) at 1uM” value was found to be 8.28%.

As to `CSC1=N/C(=C\c2ccc(C)cc2)C(=O)S1`, the “hERG current change (%, negative = inhibition) at 1uM” value is on record as -0.743%.

Regarding `CCOC(=O)N1CCN(c2cc(NCCC(=O)O)c3c4c(onc24)-c2ccccc2C3=O)CC1`, the “hERG current change (%, negative = inhibition) at 1uM” value was found to be 9.16%. Turning to `CCN(CC)S(=O)(=O)c1ccc(N2CCOCC2)c(NC(=O)C2CSC3(C)CCC(=O)N23)c1` (stereo not shown), the “hERG current change (%, negative = inhibition) at 1uM” value is recorded as -13.9%.

For the compound `CC(=O)Nc1ccc(S(=O)(=O)N(C)Cc2ccccc2)cc1`, the “hERG current change (%, negative = inhibition) at 1uM” value is recorded as -1.16%. For `COc1ccccc1NC(=O)C1=C(C)NC(=O)NC1c1ccco1` (stereo not shown), the “hERG current change (%, negative = inhibition) at 1uM” value was 7.09%. With `NS(=O)(=O)c1ccc(NC(=O)c2ccc3c(c2)CCN3S(=O)(=O)c2ccccc2)cc1`, the “hERG current change (%, negative = inhibition) at 1uM” value is 15.3%. As for `COc1ccc(Nc2nc3ccccc3n2C)cc1`, the figure is 13.1%; as for `COc1ccc(NC(=O)CN(C)C(=O)Cc2c(C)nc3ccccc3c2C)cc1`, -2.51%.

As for `CCN1CCN(c2nc(Nc3cccc(OC)c3)nc(N)c2[N+](=O)[O-])CC1`, the “hERG current change (%, negative = inhibition) at 1uM” value is -60.6%.

As to `C/C(Cl)=C/CSc1nnc2n(N)c(=O)c3ccccc3n12`, the “hERG current change (%, negative = inhibition) at 1uM” value is 4.95%. As for `Cc1cc(C)c2c(n1)sc1c(=O)n(CC(=O)c3ccccc3)cnc12`, the figure is 6.53%; as for `COc1ccc(N(CC(=O)NCc2cccc(OC)c2)S(=O)(=O)c2c(C)noc2C)cc1`, -22.4%.

For the compound `CCN(CC)C(=O)CSc1nc2ccccc2c(=O)n1CCC(=O)NCc1ccc(F)cc1`, the “hERG current change (%, negative = inhibition) at 1uM” value turned out to be 0.736%.

For the compound `O=C(N/N=C/C1CC=CCC1)c1cc(Br)ccc1O` (stereo not shown), the “hERG current change (%, negative = inhibition) at 1uM” value was 7.54%. For `Cc1ccc(C(=O)Nc2ccc(CN3CCS(=O)(=O)CC3)cc2)cc1C`, the “hERG current change (%, negative = inhibition) at 1uM” value was determined as 3.18%.
